Measurements published in PMC4583372.
Changes are numbered by the printed parent chain. These are yes or no findings as the source states them, for the method shown. In cells and extracts the contact can be indirect. Some results given as binding are weak or reduced against the parent protein; the word gives no strength. Blank lines part the entries; values can stand above or below the molecule they belong to.

Amino acid sequences for entries named in this document (tags omitted). A change or cut given only in a name is not applied to a line headed by its entry.
UniProt P32958: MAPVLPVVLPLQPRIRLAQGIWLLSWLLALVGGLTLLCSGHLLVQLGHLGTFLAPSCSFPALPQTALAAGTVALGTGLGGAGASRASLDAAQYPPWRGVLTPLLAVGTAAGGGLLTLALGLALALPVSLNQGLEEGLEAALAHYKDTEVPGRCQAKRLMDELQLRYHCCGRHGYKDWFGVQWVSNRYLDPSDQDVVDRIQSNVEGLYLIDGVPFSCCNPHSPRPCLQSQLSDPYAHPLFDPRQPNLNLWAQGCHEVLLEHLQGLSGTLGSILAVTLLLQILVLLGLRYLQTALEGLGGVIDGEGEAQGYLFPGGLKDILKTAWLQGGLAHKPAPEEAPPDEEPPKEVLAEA
UniProt P62897: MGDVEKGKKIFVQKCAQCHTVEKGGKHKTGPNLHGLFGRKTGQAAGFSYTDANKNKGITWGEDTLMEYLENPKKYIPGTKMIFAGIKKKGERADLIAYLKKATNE
UniProt E1AZ71: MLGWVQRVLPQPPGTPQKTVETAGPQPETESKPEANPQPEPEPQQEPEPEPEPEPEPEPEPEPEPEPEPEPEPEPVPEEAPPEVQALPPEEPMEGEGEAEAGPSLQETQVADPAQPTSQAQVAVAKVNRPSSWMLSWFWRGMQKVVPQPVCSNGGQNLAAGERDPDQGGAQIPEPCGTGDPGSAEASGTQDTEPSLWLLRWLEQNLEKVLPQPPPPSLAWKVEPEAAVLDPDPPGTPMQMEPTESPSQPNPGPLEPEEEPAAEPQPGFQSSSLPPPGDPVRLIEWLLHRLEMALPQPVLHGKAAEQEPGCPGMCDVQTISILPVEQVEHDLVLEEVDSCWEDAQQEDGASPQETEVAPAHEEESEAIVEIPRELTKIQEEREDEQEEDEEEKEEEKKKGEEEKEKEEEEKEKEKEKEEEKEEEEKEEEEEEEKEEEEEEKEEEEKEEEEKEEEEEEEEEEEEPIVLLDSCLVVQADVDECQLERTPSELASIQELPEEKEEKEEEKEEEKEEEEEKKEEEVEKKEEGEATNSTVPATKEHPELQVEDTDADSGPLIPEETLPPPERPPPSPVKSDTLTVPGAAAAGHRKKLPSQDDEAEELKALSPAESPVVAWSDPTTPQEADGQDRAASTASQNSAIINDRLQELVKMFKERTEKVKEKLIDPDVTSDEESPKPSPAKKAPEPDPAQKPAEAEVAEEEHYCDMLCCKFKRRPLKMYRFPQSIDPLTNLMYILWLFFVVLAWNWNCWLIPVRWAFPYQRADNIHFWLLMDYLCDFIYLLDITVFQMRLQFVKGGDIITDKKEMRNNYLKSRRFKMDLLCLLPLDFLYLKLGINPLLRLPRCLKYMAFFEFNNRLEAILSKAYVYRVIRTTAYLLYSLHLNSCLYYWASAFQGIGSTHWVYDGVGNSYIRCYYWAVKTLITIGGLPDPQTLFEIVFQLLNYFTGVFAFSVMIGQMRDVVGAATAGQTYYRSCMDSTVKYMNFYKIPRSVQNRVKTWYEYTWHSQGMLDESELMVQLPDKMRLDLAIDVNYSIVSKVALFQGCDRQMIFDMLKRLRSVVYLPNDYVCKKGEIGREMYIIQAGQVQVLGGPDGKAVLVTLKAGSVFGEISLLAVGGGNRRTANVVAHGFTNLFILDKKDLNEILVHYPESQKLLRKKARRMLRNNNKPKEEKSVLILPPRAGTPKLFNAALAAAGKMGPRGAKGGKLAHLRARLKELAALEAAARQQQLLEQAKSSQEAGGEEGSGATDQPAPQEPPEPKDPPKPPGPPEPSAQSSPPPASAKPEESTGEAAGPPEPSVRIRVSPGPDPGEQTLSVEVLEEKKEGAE
UniProt P20443: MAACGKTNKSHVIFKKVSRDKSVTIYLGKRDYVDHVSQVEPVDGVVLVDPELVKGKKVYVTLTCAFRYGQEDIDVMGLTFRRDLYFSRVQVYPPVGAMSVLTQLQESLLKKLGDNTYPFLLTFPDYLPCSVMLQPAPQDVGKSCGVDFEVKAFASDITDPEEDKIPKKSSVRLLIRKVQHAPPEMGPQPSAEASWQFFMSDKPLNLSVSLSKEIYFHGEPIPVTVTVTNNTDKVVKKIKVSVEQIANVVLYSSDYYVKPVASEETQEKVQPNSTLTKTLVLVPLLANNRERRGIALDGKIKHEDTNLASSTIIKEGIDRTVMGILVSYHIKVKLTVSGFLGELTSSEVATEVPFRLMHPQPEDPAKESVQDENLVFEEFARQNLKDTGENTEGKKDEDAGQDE
UniProt P60879: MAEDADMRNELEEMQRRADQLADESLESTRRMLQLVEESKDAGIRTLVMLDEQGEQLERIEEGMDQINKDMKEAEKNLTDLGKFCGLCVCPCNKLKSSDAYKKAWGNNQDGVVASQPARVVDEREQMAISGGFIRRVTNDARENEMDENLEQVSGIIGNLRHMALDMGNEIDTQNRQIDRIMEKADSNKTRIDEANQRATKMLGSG
UniProt P63044: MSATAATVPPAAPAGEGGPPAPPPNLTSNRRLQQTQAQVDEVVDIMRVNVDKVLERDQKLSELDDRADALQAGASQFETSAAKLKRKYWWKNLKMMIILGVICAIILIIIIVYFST

Legend:
[1] = target: T1, Syn3B expressed in HEK293 cells (pCMV6-syntaxin 3B) (UniProt Q64704); test: co-IP; HEK293 cells double transfected; extracts solubilized with Triton X-100; IP with RDS, ROM-1 or Syn3B antibodies and protein A sepharose; western blot
T1 sequence: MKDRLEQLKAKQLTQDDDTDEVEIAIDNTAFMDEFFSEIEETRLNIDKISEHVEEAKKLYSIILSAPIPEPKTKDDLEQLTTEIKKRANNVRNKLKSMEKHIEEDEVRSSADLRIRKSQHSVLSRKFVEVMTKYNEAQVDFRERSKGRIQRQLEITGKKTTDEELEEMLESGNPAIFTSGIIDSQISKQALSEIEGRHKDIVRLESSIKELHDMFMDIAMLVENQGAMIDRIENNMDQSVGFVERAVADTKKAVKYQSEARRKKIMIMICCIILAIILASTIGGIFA

[2] = target: T2, Syntaxin-3 isoform B (Stx3) (mouse (endogenous in retina)) (UniProt Q64704); test: co-IP; Triton X-100 extracted WT mouse retinas; IP with RDS, ROM-1 or Syn3B antibodies and protein A sepharose; western blot
T2 sequence: T1 sequence

[3] = target: T3, WT RDS expressed in HEK293 cells (UniProt P15499); test: co-IP; HEK293 cells double transfected; extracts solubilized with CHAPS; IP with RDS, ROM-1 or Syn3B antibodies; western blot
T3 sequence: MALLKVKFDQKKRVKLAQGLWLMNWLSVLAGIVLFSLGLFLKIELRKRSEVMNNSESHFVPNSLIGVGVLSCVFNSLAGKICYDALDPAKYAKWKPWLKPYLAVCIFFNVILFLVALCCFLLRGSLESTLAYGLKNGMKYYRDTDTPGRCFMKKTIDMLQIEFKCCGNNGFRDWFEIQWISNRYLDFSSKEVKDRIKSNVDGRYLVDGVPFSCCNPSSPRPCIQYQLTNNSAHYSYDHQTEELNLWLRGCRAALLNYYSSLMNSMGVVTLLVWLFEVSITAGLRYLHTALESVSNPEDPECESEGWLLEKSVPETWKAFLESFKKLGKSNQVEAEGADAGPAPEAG

[4] = target: WT ROM-1 expressed in HEK293 cells (UniProt P32958); test: as above
[5] = target: ROM-1 (rod outer segment protein 1) (mouse (endogenous in retina)) (UniProt P32958); test: co-IP; CHAPS-solubilized WT mouse retinal extracts; IP with RDS, ROM-1 or Syn3B antibodies; western blot
[6] = target: T4, Peripherin-2 also known as RDS (retinal degeneration slow) (mouse (endogenous in retina)) (UniProt P15499); test: as above
T4 sequence: T3 sequence

[7] = target: T2, Syntaxin-3 isoform B (Stx3) (mouse (endogenous in retina)); test: co-IP; retinal extracts of WT, nrl-/-, rds C150S/C150S, rds Y141C/Y141C, R172W/rds-/- and R172W/rds-/-/nrl-/- mice; detergent not indicated; IP with anti-Syn3B-478 (elution non-reducing, or eluents treated with EndoH) or with RDS antibodies (mAB 2E7 or RDS-CT); western blot
[8] = target: T4, Peripherin-2 also known as RDS (retinal degeneration slow) (mouse (endogenous in retina)); test: proximity ligation; Duolink In Situ kit on WT mouse retinal cryosections; paired sections with regular immunofluorescence
[9] = target: T5, C150S-RDS expressed in HEK293 cells (UniProt P15499); test: co-IP; HEK293 cells transfected with WT or C150S RDS and Syn3B; detergent not indicated; IP for RDS (mAB 2E7 or RDS-CT); western blot for Syn3B
T5 sequence: T3 sequence with C150S

[10] = target: T3, WT RDS expressed in HEK293 cells; test: co-IP; HEK293 cells single transfected; extracts mixed in a 1:1 ratio (based on total protein) after extraction, then IP; western blot
[11] = target: T3, WT RDS expressed in HEK293 cells; test: co-IP; HEK293 cells double transfected; extracts solubilized with Triton X-100; IP with RDS, ROM-1 or Syn3B antibodies and protein A sepharose; western blot
[12] = target: WT ROM-1 expressed in HEK293 cells (UniProt P32958); test: as above

Molecule: WT ROM-1 expressed in HEK293 cells (from UniProt P32958 1-351)
binding [1]: binds

Molecule: ROM-1 (rod outer segment protein 1) (from UniProt P32958 1-351)
binding [2]: binds
binding [7]: binds
binding [8]: binds

Molecule: cytochrome C (from UniProt P62897 1-105)
binding [8]: no binding

Molecule: GARP/beta subunit of the rod cyclic nucleotide gated channel (CNGβ) (from UniProt E1AZ71 1-1325)
binding [2]: no binding

B1: Syn3B expressed in HEK293 cells (pCMV6-syntaxin 3B) (protein, UniProt Q64704-2 1-287)
chain: T1 sequence
binding [9]: binds
binding [10]: binds
binding [11]: binds
binding [12]: binds

B3: Peripherin-2 also known as RDS (retinal degeneration slow) (protein, UniProt P15499 1-346)
chain: T3 sequence
binding [2]: binds
binding [7]: binds

Results, then the molecule that gave them:

binding [2]: no binding
Molecule: arrestin 1 (from UniProt P20443 1-403)

binding [3]: binds
binding [4]: binds
Molecule: SNAP-25 expressed in HEK293 cells (pCMV-SPORT6-SNAP-25) (from UniProt P60879 1-206)

binding [5]: binds
binding [6]: binds
Molecule: synaptosomal-associated protein 25 (SNAP25) (from UniProt P60879-1 1-206)

binding [1]: binds
Molecule: VAMP2-myc-DDK expressed in HEK293 cells (from UniProt P63044 1-116)

binding [1]: binds
B2: WT RDS expressed in HEK293 cells (protein, UniProt P15499 1-346)
chain: T3 sequence
